Sequences and labels used below:
B1: TPR 5TU (parent)
chain: GGAUCUUCUCGAUCUAACAAAAAAGACAAAUCUGCCACAAAGCUUGAGAGCAUCUUCGGAUGCAGAGGCGGCAGCCUUCGGUGGCGCGAUAGCGCCAACGUUCUCAACUAUGACACGCAAAACGCGUGCUCCGUUGAAUGGAGUUUAUCAUG

This sample is rich in variants without activity.

The data set covers variants of B1. Briefly: polymerase ribozyme fitness, log enrichment relative to wild type (log ratio); higher = more active; in vitro selection for triplet polymerase activity. The method in brief: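 Only genotypes with ≥10 input reads and ≥1 read per output were kept after Illumina sequencing of input and output libraries. These libraries were PCR-built, transcribed mutants of each subunit of a heterodimeric triplet polymerase ribozyme, each put through one triplicate in vitro selection round with frozen incubation at −7 °C, gel excision of extended constructs, streptavidin-bead capture and RT-PCR. Fitness is a logarithmic ratio of genotype enrichment to wild-type enrichment, from inverse-variance-weighted replicate averages, with the logarithm in base 2.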
In the case of U78G U127A, the “polymerase ribozyme fitness (log ratio)” value is ≤ -4.2. Regarding U82G C93A G133A U134A, the “polymerase ribozyme fitness (log ratio)” value was ≤ -4.2. On to U77C A91U, for which the “polymerase ribozyme fitness (log ratio)” value was ≤ -4.2. On to U78G U82G U148A, for which the “polymerase ribozyme fitness (log ratio)” value is ≤ -4.2. As to G80U U90A A138G, the “polymerase ribozyme fitness (log ratio)” value is ≤ -4.2.

U78C C93U U145A C149G: the “polymerase ribozyme fitness (log ratio)” value was ≤ -4.2. The figure for G81U U82G C87U A89C U102C C118U G126A G143A U151G is ≤ -4.2; for C79G G88C C95U A98G A115G G136C A142U it is ≤ -4.2; for C79A G83A it is -3.78. As to U77G G92U A115U, the “polymerase ribozyme fitness (log ratio)” value is ≤ -4.2. Consider U82A C93G, for which the “polymerase ribozyme fitness (log ratio)” value was -3.41. For the variant G80C C85U A97C C99A G141U, the “polymerase ribozyme fitness (log ratio)” value was -3.93. The figure for C79G C103G is ≤ -4.2; for G80U G84C C116G U148C it is ≤ -4.2. In the case of C79G C96U A138U, the “polymerase ribozyme fitness (log ratio)” value is ≤ -4.2. Then U82A C85U A137G U144C U151C, with ≤ -4.2; and U82A A120C U130C G143U, with -2.44. For the variant C79G C93G, the “polymerase ribozyme fitness (log ratio)” value is ≤ -4.2. C79U A91U C96U A98U A106G: the “polymerase ribozyme fitness (log ratio)” value is ≤ -4.2. As to U82A A106G C123G U148G, the “polymerase ribozyme fitness (log ratio)” value was -4.03. Turning to U82A U101C G124U U134C A137C, the “polymerase ribozyme fitness (log ratio)” value is ≤ -4.2.

For the variant U77G C99A G140A, the “polymerase ribozyme fitness (log ratio)” value is ≤ -4.2. In the case of C79A A137C, the “polymerase ribozyme fitness (log ratio)” value is ≤ -4.2. For U77G G80A C96G G117A, the “polymerase ribozyme fitness (log ratio)” value is ≤ -4.2. On to U82A A91C A115C A138G, for which the “polymerase ribozyme fitness (log ratio)” value was ≤ -4.2. For the variant C79G G86U G94A, the “polymerase ribozyme fitness (log ratio)” value is ≤ -4.2. Take G83A A107C C116A: the “polymerase ribozyme fitness (log ratio)” value is ≤ -4.2. In the case of U77C G86U U90C, the “polymerase ribozyme fitness (log ratio)” value was ≤ -4.2. Take G80A C87U A89C C99A A120U: the “polymerase ribozyme fitness (log ratio)” value is -2. With C79U C85A, the “polymerase ribozyme fitness (log ratio)” value is ≤ -4.2. As for C79U C85U, the “polymerase ribozyme fitness (log ratio)” value was -1.94. With G80A G81A A120C, the “polymerase ribozyme fitness (log ratio)” value was -0.393.

Turning to U77G C93A G143A U146C, the “polymerase ribozyme fitness (log ratio)” value is ≤ -4.2. In the case of U78A C131U, the “polymerase ribozyme fitness (log ratio)” value is ≤ -4.2.

Turning to G81C G92A C116G G124A G133U C149U, the “polymerase ribozyme fitness (log ratio)” value was ≤ -4.2.

On to G81A C87U G100U A115U C116U, for which the “polymerase ribozyme fitness (log ratio)” value is -4.04. Then C79G C93U G136A, with ≤ -4.2.

Turning to G81A G86A, the “polymerase ribozyme fitness (log ratio)” value is -1.56. Consider G80A G124A, for which the “polymerase ribozyme fitness (log ratio)” value worked out at 0.289. As to C79A C93G C95U U127G C131U G143U, the “polymerase ribozyme fitness (log ratio)” value was ≤ -4.2. Turning to U82A U90C A91U G126U G140C, the “polymerase ribozyme fitness (log ratio)” value is ≤ -4.2.

As for G81C C87A A107G C108U A110C, the “polymerase ribozyme fitness (log ratio)” value was ≤ -4.2. The figure for U77G C87A G117U is ≤ -4.2; for C79G A98U C99U G133U it is ≤ -4.2. Take G81A C85A: the “polymerase ribozyme fitness (log ratio)” value amounted to 0.102. For the variant U78C A142G, the “polymerase ribozyme fitness (log ratio)” value was -1.33. The figure for U78C A142U is -1.72; for C79U C93U C95U it is -4.08; for U78G G92U it is ≤ -4.2. With U77C G92C, the “polymerase ribozyme fitness (log ratio)” value was -3.48. On to C79U G84U C149A, for which the “polymerase ribozyme fitness (log ratio)” value was ≤ -4.2.

As to U77G U144G, the “polymerase ribozyme fitness (log ratio)” value is ≤ -4.2. As for U78A C95G U127C U130G U139G, the “polymerase ribozyme fitness (log ratio)” value was ≤ -4.2. The figure for G81U G84A C93G U148G is ≤ -4.2.

For the variant U78G A89U A106G C118U, the “polymerase ribozyme fitness (log ratio)” value is ≤ -4.2. For the variant U77G C114G A119G U127G, the “polymerase ribozyme fitness (log ratio)” value was ≤ -4.2. The figure for U82G G86A is -0.594.

Turning to U78G A91C C131G, the “polymerase ribozyme fitness (log ratio)” value is ≤ -4.2.

Take U78A G80U A138G G152U: the “polymerase ribozyme fitness (log ratio)” value is ≤ -4.2. In the case of U77C G92U A97G, the “polymerase ribozyme fitness (log ratio)” value was ≤ -4.2. Then G83A A97U, with 0.538; and U82G A89U A91U A98U G100C, with ≤ -4.2; and G81C C93A U148A, with ≤ -4.2.

On to U77A U135A, for which the “polymerase ribozyme fitness (log ratio)” value was ≤ -4.2. U77G A98G C116U: the “polymerase ribozyme fitness (log ratio)” value was ≤ -4.2. Then U77C, with -2.04; and U77G, with ≤ -4.2; and G80U G81C G84U A89U A97U G100A G126U, with ≤ -4.2. The figure for U82G G84A G86U C118G is ≤ -4.2; for U77C G94C it is -3.48; for U77A G124U A138G it is ≤ -4.2. As for C79U A91U C105G C108G A138G, the “polymerase ribozyme fitness (log ratio)” value is ≤ -4.2. U77G C99U G128U A137U: the “polymerase ribozyme fitness (log ratio)” value is ≤ -4.2. U82C U90G C125G: the “polymerase ribozyme fitness (log ratio)” value was ≤ -4.2. The figure for U78C U109G A137C A147U is ≤ -4.2. As to C79U U90A A106U, the “polymerase ribozyme fitness (log ratio)” value is ≤ -4.2. Consider U77G C116U U130G, for which the “polymerase ribozyme fitness (log ratio)” value was ≤ -4.2. Turning to G81C G117A A119C, the “polymerase ribozyme fitness (log ratio)” value was determined as 0.184.

On to C79U C87U A113G, for which the “polymerase ribozyme fitness (log ratio)” value was -4.11.

For the variant G80A A91G A106C C108U G133C, the “polymerase ribozyme fitness (log ratio)” value is ≤ -4.2. Then G81C C95A U134A U144C, with -2.86; and G81C G126C, with 0.723; and G81A G140C, with -2.67.

Turning to U82G G100U G128A, the “polymerase ribozyme fitness (log ratio)” value was ≤ -4.2.
